Laboratory results as given in the supplement of paper PMC4967469.
The IC50 comes from the fitted curve, where viability falls to half of the control; a limit (>, <) means that the fit lies beyond the doses tested. AUC, from the same fit, is the share of area under the viability curve across the 256-fold dose range; values near 1 show little effect. For some assays here: The top dose, if marked as inferred, comes from the curve model; the source does not state it. For some assays here: Where an entry number is given, a second screen of the drug exists; the two often differ.

How the values were obtained:
Experiment in all cases: Viability of human cancer cell lines after 72 h of drug (GDSC screen)
[1] = compound: CN(NC(=O)CC(=O)NN(C)C(=S)c1ccccc1)C(=S)c1ccccc1 [Elesclomol]; details: top dose 0.2 µM; top dose inferred
Protocol: (§1)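 Human cancer cell lines in 384-well plates, medium with 10% serum, drug for 72 h over a 256-fold dose range (nine 2-fold or five 4-fold steps up to the top dose). Adherent lines were fixed and stained with the nucleic acid dye Syto60, suspension lines read with resazurin; signal relative to control wells, capped at 0 and 100%. One two-parameter sigmoid per drug and line, fitted in a mixed model over all curves with the slope shared within a line.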

[2] = compound: CC/C(=C(\c1ccccc1)c1ccc(OCCN(C)C)cc1)c1ccccc1 [Tamoxifen]; details: top dose 5 µM
Protocol: as §1

[3] = compound: O=C(Nc1cccc(Nc2ncc(Br)c(NCCc3cnc[nH]3)n2)c1)N1CCCC1 [BX-912]; details: top dose 10.24 µM; top dose inferred
Protocol: as §1

[4] = compound: O=C(/C=C/c1ccc(CN(CCO)CCc2c[nH]c3ccccc23)cc1)NO [LAQ824]; details: top dose 1.024 µM; top dose inferred
Protocol: as §1

[5] = compound: Cc1ccc(NC(=O)c2ccc(CN3CCN(C)CC3)cc2)cc1Nc1nc(-c2cccnc2)cs1 [Masitinib]; details: top dose 20 µM
Protocol: as §1

[6] = compound: O=C(Nc1ccc(OC(F)(F)F)cc1)c1sccc1NCc1ccnc2ccccc12 [OSI-930]; details: top dose 10.24 µM
Protocol: as §1

[7] = compound: O=S(=O)(O)c1ccc2cc(N=Nc3cc(S(=O)(=O)O)c4cccnc4c3O)ccc2c1 [NSC-87877]; details: top dose 16 µM; top dose inferred
Protocol: as §1

[8] = compound: CCCC(=O)OCc1ccc(OC(=O)/C=C(C)/C=C/C=C(C)/C=C/C2=C(C)CCCC2(C)C)cc1 [VNLG/124]; details: top dose 5.12 µM; top dose inferred
Protocol: as §1

[9] = compound: Cc1c(N)nc([C@H](CC(N)=O)NC[C@H](N)C(N)=O)nc1C(=O)N[C@H](C(=O)N[C@H](C)[C@@H](O)[C@H](C)C(=O)N[C@H](C(=O)NCCc1nc(-c2nc(C(=O)NCCC[S+](C)C)cs2)cs1)[C@@H](C)O)[C@@H](OC1OC(CO)C(O)C(O)C1OC1OC(CO)C(O)C(OC(N)=O)C1O)c1cnc[nH]1 [Bleomycin]
Protocol: as §1

[10] = top dose 50 µM, screen: GDSC drug entry 1378, top dose inferred
[11] = top dose 64 µM, screen: GDSC drug entry 190

Cell Line | AUC [1] | IC50 [1] | AUC [2] | IC50 [2] | AUC [3] | IC50 [3] | AUC [4] | IC50 [4] | AUC [5] | IC50 [5] | AUC [6] | IC50 [6] | AUC [7] | IC50 [7] | AUC [8] | IC50 [8] | AUC [9, 10] | IC50 [9, 10] | AUC [9, 11] | IC50 [9, 11]
DSH1 (bladder, adherent) | 0.624 | 0.027 µM | 0.988 | > 5 µM | 0.924 | > 10.2 µM | 0.419 | 0.0388 µM | 0.935 | > 20 µM | 0.98 | > 10.2 µM | 0.985 | > 16 µM | 0.971 | > 5.12 µM | 0.845 | 33.7 µM | 0.903 | > 64 µM
SW756 (cervix, adherent) | 0.369 | 0.00505 µM | 0.983 | > 5 µM | 0.984 | > 10.2 µM | 0.704 | 0.27 µM | 0.967 | > 20 µM | 0.966 | > 10.2 µM | 0.91 | > 16 µM | 0.969 | > 5.12 µM | 0.439 | 2.06 µM | 0.637 | 10.3 µM
DMS-79 (small cell lung carcinoma, suspension) | 0.967 | > 0.2 µM | 0.98 | > 5 µM | 0.949 | > 10.2 µM | 0.576 | 0.107 µM | 0.958 | > 20 µM | 0.965 | > 10.2 µM | 0.987 | > 16 µM | 0.987 | > 5.12 µM | 0.879 | > 50 µM | 0.936 | > 64 µM
UMC-11 (lung carcinoid, adherent) | 0.973 | > 0.2 µM | 0.99 | > 5 µM | 0.919 | > 10.2 µM | 0.57 | 0.0972 µM | 0.821 | 9.97 µM | 0.985 | > 10.2 µM | 0.991 | > 16 µM | 0.985 | > 5.12 µM | 0.926 | > 50 µM | 0.989 | > 64 µM
A3-KAW (B-cell lymphoma, suspension) | 0.905 | 0.172 µM | 0.978 | > 5 µM | 0.783 | 3.42 µM | 0.287 | 0.0186 µM | 0.895 | 15.6 µM | 0.908 | 9.06 µM | 0.992 | > 16 µM | 0.985 | > 5.12 µM | 0.347 | 1.3 µM | 0.226 | 0.793 µM
COLO-679 (melanoma, adherent) | 0.537 | 0.016 µM | 0.975 | > 5 µM | 0.935 | > 10.2 µM | 0.181 | 0.00609 µM | 0.954 | > 20 µM | 0.978 | > 10.2 µM | 0.985 | > 16 µM | 0.984 | > 5.12 µM | 0.65 | 8.61 µM | 0.416 | 2.29 µM
Calu-6 (lung adenocarcinoma, adherent) | 0.934 | > 0.2 µM | 0.981 | > 5 µM | 0.916 | > 10.2 µM | 0.383 | 0.0289 µM | 0.899 | > 20 µM | 0.859 | > 10.2 µM | 0.977 | > 16 µM | 0.984 | > 5.12 µM | 0.616 | 6.87 µM | 0.586 | 7.15 µM
GMS-10 (glioma, adherent) | 0.804 | 0.0994 µM | 0.987 | > 5 µM | 0.951 | > 10.2 µM | 0.802 | 0.498 µM | 0.876 | 19.6 µM | 0.983 | > 10.2 µM | 0.969 | > 16 µM | 0.984 | > 5.12 µM | 0.381 | 1.48 µM | 0.977 | > 64 µM
EW-13 (Ewing sarcoma, suspension) | 0.704 | 0.0504 µM | 0.982 | > 5 µM | 0.708 | 2.65 µM | 0.246 | 0.0108 µM | 0.793 | 10.2 µM | 0.935 | > 10.2 µM | 0.72 | 4.54 µM | 0.984 | > 5.12 µM | 0.758 | 19 µM | 0.205 | 0.478 µM
GDM-1 (acute myeloid leukaemia, suspension) | 0.983 | > 0.2 µM | 0.956 | > 5 µM | 0.376 | 0.295 µM | 0.23 | 0.011 µM | 0.153 | 0.114 µM | 0.158 | 0.0606 µM | 0.987 | > 16 µM | 0.948 | > 5.12 µM | 0.908 | > 50 µM | 0.146 | 0.34 µM
MONO-MAC-6 (acute myeloid leukaemia, suspension) | 0.832 | 0.138 µM | 0.97 | > 5 µM | 0.103 | < 0.04 µM | 0.392 | 0.0318 µM | 0.853 | 17 µM | 0.951 | > 10.2 µM | 0.983 | > 16 µM | 0.854 | 4.39 µM | 0.842 | 38 µM | 0.495 | 3.86 µM
PANC-08-13 (pancreas, adherent) | 0.502 | 0.0127 µM | 0.972 | > 5 µM | 0.956 | > 10.2 µM | 0.594 | 0.125 µM | 0.901 | > 20 µM | 0.968 | > 10.2 µM | 0.983 | > 16 µM | 0.981 | > 5.12 µM | 0.72 | 15.9 µM | 0.651 | 11.8 µM
EGI-1 (biliary tract, adherent) | 0.462 | 0.00952 µM | 0.98 | > 5 µM | 0.954 | > 10.2 µM | 0.515 | 0.0711 µM | 0.942 | > 20 µM | 0.971 | > 10.2 µM | 0.94 | > 16 µM | 0.978 | > 5.12 µM | 0.726 | 17 µM | 0.338 | 1.23 µM
